These results are taken from PubChem BioAssay AID488969 (Vanderbilt High Throughput Screening Facility, 2010).

The full ranking holds about 110,000 compounds; the median of “z-score” is about -0.1, and the highest 2% start at about 2. The list shows a part of the results. Active and inactive are the calls of the source.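 The calls were made as follows: active = z-score in the third read window above 3 or below -3; inactive = the rest.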

For this experiment, the target named is Metabotropic glutamate receptor 8 (Rattus norvegicus) (UniProt P70579). The experiment in a line: rat mGluR8 modulators via GIRK flux, primary screen, cell-based, thallium flux, HTS (AID 488969). To be noted: HEK293 rat mGluR8, GIRK (G protein-gated inwardly rectifying potassium channel) thallium flux, FluoZin2; at 10 µM; stronger effect = higher value; submaximal glutamate (EC20) added with thallium.
UniProt P70579, sequence (P70579 whole entry, looked up): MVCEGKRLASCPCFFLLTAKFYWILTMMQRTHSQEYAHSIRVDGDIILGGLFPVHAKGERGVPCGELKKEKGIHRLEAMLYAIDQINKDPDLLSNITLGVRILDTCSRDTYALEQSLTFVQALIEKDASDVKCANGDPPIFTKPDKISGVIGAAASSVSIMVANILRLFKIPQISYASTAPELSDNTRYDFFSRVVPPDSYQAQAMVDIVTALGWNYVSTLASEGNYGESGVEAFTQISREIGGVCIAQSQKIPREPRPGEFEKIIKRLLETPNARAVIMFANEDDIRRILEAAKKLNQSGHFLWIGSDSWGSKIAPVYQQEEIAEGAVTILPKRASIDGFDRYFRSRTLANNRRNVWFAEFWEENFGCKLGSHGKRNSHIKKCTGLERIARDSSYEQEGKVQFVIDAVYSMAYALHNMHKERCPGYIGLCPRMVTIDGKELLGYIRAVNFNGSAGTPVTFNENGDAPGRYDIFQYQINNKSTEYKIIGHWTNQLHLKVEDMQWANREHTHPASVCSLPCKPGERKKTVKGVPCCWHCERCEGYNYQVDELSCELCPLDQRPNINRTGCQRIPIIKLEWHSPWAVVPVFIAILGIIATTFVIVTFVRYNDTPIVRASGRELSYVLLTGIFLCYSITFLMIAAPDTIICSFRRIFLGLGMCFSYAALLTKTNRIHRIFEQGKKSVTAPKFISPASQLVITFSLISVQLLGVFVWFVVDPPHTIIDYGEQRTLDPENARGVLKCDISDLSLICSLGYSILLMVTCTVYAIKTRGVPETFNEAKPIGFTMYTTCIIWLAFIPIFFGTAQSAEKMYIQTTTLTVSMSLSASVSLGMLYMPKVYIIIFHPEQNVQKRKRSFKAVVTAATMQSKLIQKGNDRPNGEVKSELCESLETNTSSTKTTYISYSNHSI
As to `CC1=CC2=C(OC1N(C)C)c1cccc3cccc(c13)C2=O` (stereo unspecified), the z-score is -1.28.

In turn, `COc1cccc(N2CCN(C(=O)C3CCCN(S(=O)(=O)c4cnc[nH]4)C3)CC2)c1` (stereo unspecified) showed a z-score of 0.142. The result for `Cc1cc(Nc2nc3ccccc3nc2Cl)n(-c2ccc([N+](=O)[O-])cc2)n1` reads -0.179; that for `Cc1noc2ncnc(Oc3ccccc3)c12`, 0.141; that for `Cc1ccc(N/C(N)=N/c2nc(CSc3ccc(C)cc3)cc(=O)[nH]2)cc1`, -0.281. The result for `CCOC(=O)c1c(NC(=O)CSc2nnc(CNc3ccc(F)cc3)o2)sc(C(C)=O)c1C` reads -0.413; that for `C=CCn1c(SCC(=O)Nc2sccc2C(N)=O)nc2ccccc2c1=O`, -0.59. The result for `COC(=O)c1cccc(NC(=S)NCCC2=CCCCC2)c1` reads 0.38; that for `S=C1CCSc2ccc(Cl)cc2N1`, active: 9.14. As for `O=C(NCC1CCCO1)c1ccccn1` (stereo unspecified), the z-score came to 0.397. `CC(C)C[C@H](NC(=O)OC(C)(C)C)C(=O)N1CCC(C(=O)O)CC1` registered a z-score of -0.14. The result for `COC(=O)C1=C(C)N(C)C(C)=C(C(=O)OC)C1c1ccncc1` reads -0.0829; that for `O=C(c1cccs1)N1CCN=C1SCc1ccccc1`, -0.398. In the case of `O=[N+]([O-])c1ccccc1N/N=C/c1c[nH]c2ccccc12` it was -0.147; in that of `O=[N+]([O-])c1ccc(Cl)c(-c2ccc(/C=N/c3c(-c4ccco4)nc4ccccn34)o2)c1`, 0.336. In the case of `O=NC1=C(c2c(O)[nH]c3ccccc23)CCCC1` it was 0.537; in that of `CCOC(=O)Cc1csc(NC(=O)c2sc3nc4ccc(CC)cc4cc3c2N)n1`, -0.0625. In the case of `CCC(C)(C)NC(=O)c1cc([N+](=O)[O-])ccc1N1CCOCC1`, the z-score is -0.0236. The result for `CS(=O)(=O)N1CCC(C(=O)O)CC1` reads 0.448.

The molecule `CCOC(=O)CSc1nnc(-c2ccc(Cl)cc2Cl)o1` gave a z-score of -0.507. In the case of `Clc1ccccc1-c1ccc(CN2CCN(c3ccccc3)CC2)o1` it was -0.108; in that of `O=C(CSc1ccc(Cl)cc1)N1CCN(c2ccc([N+](=O)[O-])cc2Cl)CC1`, -0.105.

In turn, `CN(c1ccccc1)S(=O)(=O)c1ccc(C(=O)NCC2CCCO2)cc1` (stereo unspecified) registered a z-score of -0.23. In the case of `Cc1ccc(OCC(O)CN2C(=O)NC(C)(C)C2=O)cc1C` (stereo unspecified) it was -0.0562; in that of `CN(Cc1nc2ccccc2c(=O)[nH]1)C(=O)c1ccc(S(=O)(=O)N(C)C)cc1`, -0.0175; in that of `COc1ccc(CC(=O)O/N=C(\N)Cc2ccc(OC)c(OC)c2)cc1`, 0.175. In the case of `CCc1ccc(CNC(=O)C2CC(=O)N(CCc3ccc(C)cc3)C2)cc1` (stereo unspecified) it was -0.28; in that of `OCCNCc1cc(Br)ccc1OCc1ccccc1`, 1.14. In the case of `CCOC(=O)CN(C(=O)CSc1nnc2c(n1)[nH]c1ccc(F)cc12)c1ccccc1` it was -0.812.

Consider `COc1cc2c(C(=O)NC3CCCCCC3)cn(C)c(=O)c2cc1OC`, for which the z-score was -0.276.

Molecule `CCOC(=O)c1cc(-c2ccccc2)sc1NC(=O)CN1C(=O)NC(CC)(c2ccccc2)C1=O` (stereo unspecified) registered a z-score of 0.0631. As for `O=C(CSc1nnc2ccccn12)Nc1ccccc1C(=O)NC1CC1`, the z-score was -0.0231. In the case of `O=C(CSc1nnc2c(n1)[nH]c1ccccc12)OCc1ccccc1` it was -0.438. In the case of `O=C(c1cccc(C(=O)N2CCN(c3ccccc3F)CC2)n1)N1CCN(c2ccccc2F)CC1` it was -0.333; in that of `O=C(Nc1nnc(CCc2ccccc2)s1)c1cccs1`, -0.218.

With `Cc1ccc(NCc2nnc(SC(C)C(=O)N/N=C/c3ccc(C)o3)n2-c2ccccc2)cc1` (stereo unspecified), the z-score is -0.315. The result for `COc1cc(S(=O)(=O)NCC2OCCc3ccccc32)ccc1-n1cnnn1` (stereo unspecified) reads -0.22. The result for `O=C1CC(N2CCOCC2)C(=O)N1CCc1ccccc1` (stereo unspecified) reads 0.298; that for `O=C(COC(=O)c1ccc2c(c1)OCCO2)NCc1ccccc1`, 0.291; that for `CCOC(=O)C1CCCN(C(=O)c2cc3c(=O)n(C)c4ccccc4c3n2C)C1` (stereo unspecified), -0.988.

`COc1cccc(-c2nnn(CC(C)=O)n2)c1` registered a z-score of 0.000718. The result for `Cc1ccsc1/C=N/NS(=O)(=O)c1ccc([N+](=O)[O-])cc1` reads 0.929; that for `Cc1nn(Cc2ccc(Cl)cc2)c(C)c1NC(=O)c1ccc([N+](=O)[O-])cc1`, -0.108. In the case of `Cn1c(C(=O)N2CCCCCC2)cc2c(=O)n(C)c3ccccc3c21` it was -0.505; in that of `CCn1c(C)c(C)c2cc(C(=O)Nc3cccc(Cl)c3)ccc21`, -0.0312; in that of `CC(=O)Oc1ccc(-c2cccc(C(=O)Oc3ccccc3)c2)cc1`, -0.288. The molecule `CCOC(=O)Nc1nnc(-c2cccc(OC)c2)s1` returned a z-score of 0.775. The result for `O=C(O)COc1ccc(/C=N/NC(=O)C2CCCN2S(=O)(=O)c2ccc(Cl)cc2)cc1` (stereo unspecified) reads -0.0737; that for `CCOc1cc(/C=N/NC(=O)c2nn(C)cc2Br)ccc1OCc1ccccc1`, -0.143. Turning to `CCCCNC(=O)C1CCN(Cc2ccc(OCc3ccccc3)cc2)CC1`, the z-score was found to be 0.479. The result for `O=C1CN(S(=O)(=O)c2ccc(Cl)cc2)CC(=O)N1CCc1ccccc1` reads 0.517; that for `CCCCOC(=O)Nc1ccc(N2CCCCC2)cc1`, -0.595; that for `COc1ccc(C2(C(=O)N3CCOCC3)CCCC2)cc1`, -0.0732. The result for `COC(=O)c1c(C)[nH]c(C(=O)OCC(=O)N2c3ccccc3NC(=O)C2(C)C)c1C` reads -0.238. The result for `O=C(c1ccco1)N1CCN(C(=O)c2cnn3c(C(F)(F)F)cc(-c4cccs4)nc23)CC1` reads -0.583; that for `Cc1ccc(S(=O)(=O)c2c(N)n(CCCO)c3nc4ccccc4nc23)cc1`, -0.819; that for `CCn1cc(/C=C(/C#N)S(=O)(=O)c2ccccc2)cn1`, 0.178.

As to `COc1ccc(N/C(=N\c2nc(C)cc(C)n2)NC(=O)C(C)C)cc1OC`, the z-score is -1.06. In the case of `CCN(CC)CC#CC(C)OCOCC#CCOC` (stereo unspecified) it was 0.431; in that of `COCc1cc(=O)[nH]c2cc(NC(=O)C(C)(C)CCl)c(C)cc12`, -0.185. The result for `COc1ccc(CCNc2cc(N3CCN(C(=O)c4ccccc4F)CC3)ccc2[N+](=O)[O-])cc1OC` reads -0.266.

With `Cc1cccc(N(CC(=O)N=Nc2c(O)[nH]c3ccccc23)S(C)(=O)=O)c1C`, the z-score was -0.693. In the case of `Cc1ccc(NC(=O)COc2ccc3oc4c(c3c2)CCCC4)nc1` it was -0.197; in that of `CC(NC(=O)COc1ccc(-c2nnco2)cc1)c1ccc(Cl)cc1Cl` (stereo unspecified), -0.498; in that of `Cc1ccc(-c2csc(=S)n2CC(=O)OCC(=O)NCc2ccco2)cc1`, -0.577. In the case of `O=C(CSCc1ccc(Cl)cc1)Nc1ccc(S(=O)(=O)N2CCCCCC2)cc1` it was 0.232. In the case of `CCOC(=O)CSC1=C(C#N)C(c2ccc(C)s2)CC(=O)N1` (stereo unspecified) it was -0.49. The molecule `CC(=O)c1cc(C#N)c(Oc2cc(C)cc(C)c2)nc1C` returned a z-score of -0.104. In the case of `CCc1c(C(=O)Nc2ncn(Cc3cccc(C)c3)n2)csc1C` it was -0.529. The result for `COC(=O)N1CN(C(=O)OC)CN(C(=O)OC)C1` reads -0.0254; that for `O=C(NCCC(=O)N1CCN(c2ncccn2)CC1)c1ccccc1`, -0.091. The result for `Cc1cc(NC(=O)CSc2nc(C(C)C)nc3sc4c(c23)CCC(C)C4)no1` (stereo unspecified) reads 0.131; that for `C=CCOc1nc(N2CCCC2)nc(N2CCCC2)n1`, -0.722; that for `O=C(O)C1CCCCC1C(=O)Nc1nccs1` (stereo unspecified), 0.000428.

Regarding `C=CCNC(=S)Nc1cccc2ccccc12`, the z-score worked out at 0.00401. `COC(=O)CSc1nc2c(c(C3CC=CCC3)c1C#N)CCC2` (stereo unspecified): the z-score amounted to 0.602. The result for `O=C(O)Cn1nc(-c2ccccc2)c2ccccc2c1=O` reads 0.102; that for `COc1ccc(/C=c2\sc3nc(-c4ccccc4)c(-c4ccccc4)n3c2=O)cc1OC`, -0.322; that for `Nc1nonc1C(=O)NCCNCc1ccccc1OCc1ccccc1F`, 1.61. The result for `COc1ccc(C2=NO[C@@H]3[C@@H]4C[C@@H]([C@H]5C(=O)N(c6ccc7c(c6)OCO7)C(=O)[C@@H]45)[C@H]23)cc1OC` reads -0.0611; that for `CCn1c2c(c3cc(C(=O)O)ccc31)CCCC2=O`, 0.843; that for `O=C(COC(=O)Cc1cn2ccsc2n1)NC12CC3CC(CC(C3)C1)C2`, 0.435. The result for `Cc1ccc(S(=O)(=O)N2CCN(c3nc4ccccc4nc3-n3nc(C)cc3C)CC2)cc1` reads -0.206; that for `COc1ccc(C(=O)N/C(=C\c2ccc3c(c2)OCO3)C(=O)NCCc2nc3ccccc3[nH]2)cc1`, -0.399; that for `Cc1cc(Cl)ccc1OCCCC(=O)NCC1CCCO1` (stereo unspecified), -0.79. `Cc1cc[n+](-c2nc3ccccc3nc2[N-]S(=O)(=O)c2cccs2)cc1C`: the z-score was -0.0185. The result for `Cc1nc(-c2ccccn2)sc1C(=O)Nc1ccc(F)cc1` reads -0.239. `O=C(CCCOc1ccccc1)NCC1CCCO1` (stereo unspecified) registered a z-score of 0.226. For the molecule `CN(Cc1ccccc1)c1nc2c(c(=O)[nH]c(=O)n2C)n1CCSc1ncccn1`, the z-score came out at 0.672. In the case of `COC(=O)c1ccccc1NC(=S)NC(NC(=O)COc1ccccc1)C(Cl)(Cl)Cl` (stereo unspecified) it was -0.203.

Molecule `CCN(CC)S(=O)(=O)c1ccc(N2CCCCC2)c(NC(=O)/C=C/c2cc(OC)c(OC)c(OC)c2)c1` gave a z-score of -0.288. In the case of `COCCn1nnnc1C(c1cc2cccc(C)c2[nH]c1=O)N1CCN(c2ccccc2F)CC1` (stereo unspecified), the z-score stood at 0.391. The result for `O=C(COc1ccc(Br)cc1)N1CCC(c2ccccc2)C1` (stereo unspecified) reads -0.638. The result for `Cc1[nH]c2ccc(-c3nnc(SCC(=O)c4ccc(F)cc4)o3)cc2c1C` reads -0.794; that for `COc1cccc(C(=O)Oc2ccccc2/C=C\C(=O)c2cc3ccccc3o2)c1`, 0.0598. The result for `COCCNC(=O)Cn1c(=O)n(C)c2ccccc21` reads -0.152; that for `CCc1ccc(N2NC(=O)/C(=C/C=C/c3ccco3)C2=O)cc1`, -0.31. The molecule `C=CCn1c(CNC(=O)c2ccco2)nnc1SCC(=O)Nc1cccc(Br)c1` had a z-score of -0.0571.

Consider `COC(=O)c1sc2nc(CN3CCN(c4ccc(OC)cc4)CC3)[nH]c(=O)c2c1C`, for which the z-score is -0.46.

For `COc1ccc(N(CC(=O)NC2CCCCC2)S(=O)(=O)c2c(C)[nH]c(=O)[nH]c2=O)cc1`, the z-score came out at 0.514. `CCOC(=O)c1[nH]c(C)c(CN(CCc2ccc(OC)c(OC)c2)C(=O)CCCC(=O)O)c1C` displayed a z-score of -0.22. In the case of `O=C(c1cc(C2CC2)nc2ccc(Br)cc12)N1N=C(C(F)F)CC1(O)C(F)F` (stereo unspecified) it was -0.824; in that of `O=C(NCCCN1CCOCC1)c1cn(-c2ccccc2)nc1-c1cccs1`, -0.0644; in that of `CC(C)CC(=O)Nc1ccc(C(=O)COc2ccc(-c3nnco3)cc2)cc1`, 0.387.

Take `CC(C)Cn1c(N2CCN(C(=O)c3cccs3)CC2)nc2ccccc21`: the z-score is -0.366.

Molecule `CC1CCCN(c2ccc(C(=O)NCc3cccs3)cn2)C1` (stereo unspecified) returned a z-score of -0.135.
